Toxic doses and inconclusive results are not listed. A number of entries come with more than one value. The list is limited to them. There may be further records. Results that share an entry differ, and nothing given here explains why; some may be repeats, others may stem from another dose, organism or construct than stated.
System: CD2F1 mice, P388/ADR leukemia ip, median survival T/C
Assay: NCI In Vivo Anticancer Drug Screen. Data for tumor model P388 Leukemia resistant to Adriamycin; NSC 123127, Developed at Scr 08 (intraperitoneal) in CD2F1 (CDF1) mice
Conditions: endpoint: median survival time; dose: 6.25 mg/kg/injection; schedule: Q01DX005 (ip); vehicle: saline with Tween-80; higher = longer survival
Method: The antitumor activity of compounds was measured in mice bearing transplantable tumors. Survival or tumor size were measured and the results are expressed as the measurement made in the treated group (T) divided by the measurement made in the vehicle treated control group (C). The tumor model used in this assay is P388 Leukemia resistant to Adriamycin; NSC 123127, Developed at Scr 08 (intraperitoneal) in CD2F1 (CDF1) mice

Question: Which T/C does the source give for `CO[C@@]12[C@@H]3N[C@@H]3CN1C1=C(C(=O)C(N3CCCC3)=C(C)C1=O)[C@@H]2COC(N)=O` here?
Answer: 122 % of control and 165 % of control

— PubChem BioAssay AID322 (DTP/NCI, 2004)
